Experimental data as given in PubChem BioAssay AID504832 (National Center for Advancing Translational Sciences (NCATS), 2011).
Among all 310,000 compounds or so, about 18,000 (5.8%) were called active. Inconclusive results, whose numbers are uncertain, are shown with a selection of clear calls. The call rests on the fitted dose curve; in most records, active means well fitted inhibition curve with a large enough effect; inconclusive means small, poorly fitted or top-dose-only effect, or another doubt; inactive means no such curve, though single readings can be large or run the other way. Potencies of inconclusive entries are left out as doubtful fits.

Test: Primary qHTS for delayed death inhibitors of the malarial parasite plastid, 48 hour incubation
Details: P. falciparum luciferase growth in erythrocytes; series mostly up to 28.7 µM; activity change, negative = inhibition: at the top concentration
Summary of the method: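 Cell-based growth assay: transgenic P. falciparum expressing firefly luciferase, cultured in red cells within RPMI 1640 containing 0.5% w/v Albumax, 24 mM bicarbonate and gentamycin. A drop in luciferase activity indicates inhibition.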
On the % scale 0 is the no-effect control and ±100 the full control effect; potency means the concentration at half of the fitted maximal effect; tags describe the fitted curve by direction and shape.

| Compound | Potency | activity change, negative = inhibition |
| --- | --- | --- |
| CCn1c(SCc2ccccc2)nnc1C1CCCCC1 | inconclusive [inhibitor, partial curve, poor fit] |  |
| CCOC(=O)c1c(C=O)c(C)n(Cc2ccccc2Cl)c1C | active: 3.29 µM |  |
| CCOC(=O)C(NC(=O)c1ccccc1F)(Nc1cc(C)on1)C(F)(F)F (stereo unspecified) |  | inactive: 9.82% |
| Cc1ccc(-c2c3c(=O)n(C)c(=O)n(C)c3cn2-n2cnnc2)cc1 | inconclusive [inhibitor, partial curve, poor fit] |  |
| O=c1c2c(nc3cc(-c4ccc(Cl)cc4)[nH]n13)CCS2 |  | inactive: 76.1% |
| CCN(CC(=O)NC(C)C)C(=O)Cc1ccc(C)c(C)c1 |  | inactive: -6.64% |
| COc1ccc(N2CCN(CC(=O)Nc3ccc(C)c(C)c3)CC2)cc1 |  | inactive: -3.7% |
| Cc1cc(=O)oc2cc(OCC(=O)Nc3ccccc3C(=O)O)ccc12 |  | inactive: 23.3% |
| CCn1c(SCC(=O)Nc2nc(C)cs2)nnc1-c1ccncc1 |  | inactive: 35.3% |
| COC(=O)c1cc2occc2n1Cc1c(F)cccc1Cl |  | inactive: 1.25% |
| Cc1ccc(NC2SC(=O)N(Cc3cccc(C(=O)O)c3)C2=O)cc1 (stereo unspecified) |  | inactive: 19.9% |
| O=C(NC(=S)NCC1CCCO1)c1ccccc1[N+](=O)[O-] (stereo unspecified) |  | inactive: 8.05% |
| Cc1cccc(NC(=O)/C(=C\c2ccc([N+](=O)[O-])o2)NC(=O)c2ccc(Cl)cc2)c1 | inconclusive [inhibitor, single point] |  |
| O=C(CCc1ccccc1)NC(NC(=S)Nc1ccc(Br)cc1)C(Cl)(Cl)Cl (stereo unspecified) | inconclusive [inhibitor, single point] |  |
| Cc1onc(-c2c(F)cccc2Cl)c1C(=O)OCC(=O)c1c[nH]c2ccccc12 | inconclusive [inhibitor, partial curve] |  |
| CC(C)N1CC(C(=O)Nc2cc(Cl)cc(Cl)c2)CC1=O (stereo unspecified) |  | inactive: 6.73% |
| Cc1cc(C)cc(OCC(=O)Nc2nonc2NC(=O)COc2cc(C)cc(C)c2)c1 | inconclusive [inhibitor, single point] |  |
| O=C(Nc1nnc(C2=COCCO2)o1)c1ccc(S(=O)(=O)N2CCCC2)cc1 | inconclusive [inhibitor, partial curve, poor fit] |  |

| Compound | Potency | activity change, negative = inhibition |
| --- | --- | --- |
| CCOc1ccc(NS(=O)(=O)c2ccc(C(=O)N3CCN(c4ncccn4)CC3)cc2)cc1 | inconclusive [inhibitor, full curve, poor fit] |  |
| CC1=C(C(=O)OCC2CCCO2)C(c2coc3ccccc3c2=O)C2=C(CCCC2=O)N1 (stereo unspecified) | inconclusive [inhibitor, single point] |  |
| CCOC(=O)c1n[nH]c2ccccc12 |  | inactive: 8.65% |
| COc1ccc2cc1Oc1ccc(cc1)C[C@H]1c3c(cc4c(c3Oc3cc5c(cc3OC)CCN(C)[C@@H]5C2)OCO4)CCN1C | active: 1.85 µM |  |
| Cc1ccc(S(=O)(=O)N2CCN(CC(=O)Nc3ccccc3C(=O)NC3CC3)CC2)cc1 | inconclusive [inhibitor, partial curve] |  |
| CCOC(=O)c1c2c([nH]c(=S)c1C#N)CCCC2 | inconclusive [inhibitor, partial curve] |  |
| O=C(N/N=C/c1cc(Cl)cc(Cl)c1O)c1ccncc1 | active: 13.1 µM |  |
| Cn1c(-c2sccc2OCc2ccccc2)n[nH]c1=S | active: 10.4 µM |  |
| COc1ccc(Nc2nnc(SCC3CCCCO3)s2)cc1 (stereo unspecified) | active: 3.7 µM |  |
| CC(=O)c1c(C)[nH]c(C(=O)CSc2nnc(-c3ccco3)n2Cc2ccccc2)c1C | inconclusive [inhibitor, partial curve, poor fit] |  |
| CC[C@@]12C(=O)N(c3cccc(Br)c3)C(=O)N1[C@H](c1ccc(OC)cc1)[C@@H]1C(=O)N(C(C)(C)C)C(=O)[C@@H]12 | inconclusive [inhibitor, partial curve, poor fit] |  |
| COc1ccc(S(=O)(=O)NCC(=O)Nc2ccc3c(c2)OCCO3)cc1OC | inconclusive [inhibitor, single point] |  |
| CN=c1scc(-c2cc(OC)ccc2OC)n1/N=C/c1c(C)[nH]c2ccccc12 | inconclusive [inhibitor, single point] |  |
| Cc1ccccc1OCC(=O)N/N=C/c1ccc([N+](=O)[O-])o1 | active: 5.22 µM |  |
| COCCCn1c(=O)c2sccc2n(Cc2cccc(C)c2)c1=O | inconclusive [inhibitor, partial curve] |  |
| CCCc1nc2ccccc2c(=O)n1/N=C/c1ccccc1O | active: 11.7 µM |  |
| CC(C)N1CCC(N2CCN(C/C=C/c3ccc(F)cc3)CC2CCO)CC1 (stereo unspecified) | inconclusive [inhibitor, partial curve] |  |
| CC1COc2ccccc2N1C(=O)c1ccc(Cl)nc1 (stereo unspecified) |  | inactive: 0.576% |
